Reference: the supplement of paper PMC3334620
Over roughly 33,000 sequences, “E-score (-0.5 to 0.5)” has its median near -0.032; the highest 2% begin near 0.36. Some of the results follow.

biological target: T1, Sko1 (UniProt Q02100); assay: PBM E-score (8-mer binding enrichment) (E-score (-0.5 to 0.5)); higher = stronger / more preferred TF binding; most listed sequences are background and not binding sites; details: protein concentration: 200 nM; construct: GST-full length
T1 sequence: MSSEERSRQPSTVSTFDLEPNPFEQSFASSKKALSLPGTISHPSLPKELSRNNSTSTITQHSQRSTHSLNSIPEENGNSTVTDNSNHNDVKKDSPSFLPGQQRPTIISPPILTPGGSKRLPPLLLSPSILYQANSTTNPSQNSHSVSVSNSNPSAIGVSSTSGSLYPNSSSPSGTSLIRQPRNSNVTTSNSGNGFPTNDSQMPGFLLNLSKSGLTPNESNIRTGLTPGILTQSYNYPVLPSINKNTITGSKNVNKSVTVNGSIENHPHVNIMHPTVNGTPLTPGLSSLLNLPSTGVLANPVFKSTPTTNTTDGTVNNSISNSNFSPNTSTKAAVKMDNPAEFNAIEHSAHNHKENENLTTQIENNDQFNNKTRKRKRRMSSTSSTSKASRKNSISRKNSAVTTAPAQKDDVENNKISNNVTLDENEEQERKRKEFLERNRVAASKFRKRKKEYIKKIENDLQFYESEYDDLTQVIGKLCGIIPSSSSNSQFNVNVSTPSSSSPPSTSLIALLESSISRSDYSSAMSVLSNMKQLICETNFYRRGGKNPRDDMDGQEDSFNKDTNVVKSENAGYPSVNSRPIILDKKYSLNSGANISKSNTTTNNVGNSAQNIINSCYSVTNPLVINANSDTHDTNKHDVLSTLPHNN
How it was run: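 Universal all-10-mer Agilent arrays, double-stranded by primer extension on fresh or once-stripped slides, were probed with about 100-200 nM GST-tagged yeast transcription factors made by PURExpress. Fluorescent anti-GST detected bound protein, and masliner normalised the scans. E-scores from the Universal PBM Analysis Suite were given to each ungapped eight-base word pooled with its reverse complement.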

| Sequence | PBM E-score |
| --- | --- |
| TATAACGA | 0.186 |
| CCCACCTA | -0.0313 |
| CCGTTGAA | -0.137 |
| CAGAATCC | -0.0689 |
| CATATAGC | 0.0785 |
| CGCCACCA | -0.102 |
| ATGGTTAC | 0.31 |
| GCGTAACC | 0.328 |
| ACAGTAAA | 0.193 |
| AAGGGCAG | -0.284 |
| CGACTTAC | -0.0988 |
| GGATTGGA | -0.122 |
| GAGTGACC | -0.342 |
| GGCAATTA | -0.00647 |
| CTGCAGGA | -0.0277 |
| CATACACG | 0.248 |
| GTAAGCGA | 0.222 |
| CCATAAAC | -0.0791 |
| CAGGTAAG | -0.156 |
| CGAGCTCA | -0.0532 |
| AGGCGGTA | -0.19 |
| AATAGCGT | 0.256 |
| TCCGAGAA | -0.0476 |
| GAATGACA | 0.249 |
| GGTCCCAC | -0.0859 |

| Sequence | PBM E-score |
| --- | --- |
| GGGTGGCA | -0.324 |
| AAGAATGT | 0.0867 |
| CGACCCGA | -0.21 |
| CCAGGCGG | -0.304 |
| AGACGCGC | 0.00774 |
| AGGTCGAA | -0.0764 |
| CAGCGAAA | -0.101 |
| CACTTTAC | 0.17 |
| ATTAAGGC | -0.083 |
| CGTCTAAC | 0.192 |
| CTAATCAA | 0.156 |
| AGGACGCC | -0.21 |
| ATGGGGTG | -0.00552 |
| GGTTACGA | 0.0671 |
| GTGGCCTA | -0.105 |
| CCCTTTCA | -0.0484 |
| ACATTATA | 0.14 |
| CTCTTCCA | -0.193 |
| GCTAATAC | -0.0215 |
| CACGGGGA | -0.289 |
| ATTACAAG | 0.164 |
| ATGAATCA | 0.0872 |
| GACAAGTC | -0.322 |
| TTGATAAA | 0.208 |
| ATAACGGG | 0.00173 |

| Sequence | PBM E-score |
| --- | --- |
| CCGTATCA | -0.0131 |
| TAGGTTAA | 0.0202 |
| CAACCGCC | -0.131 |
| CGGTTCCC | -0.335 |
| CTCCAGAC | -0.13 |
| GGGACAAA | -0.0851 |
| CTTATGTC | 0.159 |
| TCCGTTAA | 0.0364 |
| AAGCGCTT | 0.0852 |
| CCGAGACA | -0.134 |
| CCGTATAC | 0.0259 |
| ATCCGGTG | -0.0956 |
| CATGGCCC | -0.157 |
| ACTATTCA | 0.0605 |
| CTATAGCC | -0.164 |
| CGGTGCAC | -0.273 |
| CCGAAGGA | -0.167 |
| CGGCACTC | -0.31 |
| AGAGCTAC | -0.091 |
| ATTCAGAA | 0.0641 |
| CACGATCC | -0.0812 |
| AGGGGCCC | -0.144 |
| GCACAAGC | -0.0721 |
| CTAATTAG | 0.222 |
| TGATAGCA | 0.0757 |

| Sequence | PBM E-score |
| --- | --- |
| CTGTCCGC | -0.181 |
| ATGTAAAT | 0.246 |
| AAATGATA | 0.266 |
| GACAACCC | -0.238 |
| GACTTTCA | -0.137 |
| AGCGGATG | -0.216 |
| ATACACGG | -0.00094 |
| CGCATACG | 0.378 |
| CCTTAAGG | -0.0977 |
| ATCAGTCC | -0.326 |
| GGGTTGAA | -0.202 |
| ACCTGCGT | 0.157 |
| CGCTAGGA | -0.00632 |
| GATGGGGA | -0.203 |
| GAAGTAGC | -0.126 |
| AACCACAT | 0.222 |
| GTGGCCAA | -0.0652 |
| GGCCTTTA | -0.225 |
| CAAAGCCG | -0.0969 |
| GGGAATCA | -0.179 |
| AAGGGACG | 0.0537 |
| TAAAGGCA | -0.0114 |
| ACAAAAGT | 0.149 |
| CGAGTAGA | -0.131 |
| ACAAAATC | 0.0929 |

| Sequence | PBM E-score |
| --- | --- |
| ACTTGATG | 0.142 |
| GCACATAA | 0.137 |
| CAGCGCCG | -0.22 |
| CCCCTTCG | -0.171 |
| CGGAGAAA | -0.132 |
| CAGCAGAC | -0.206 |
| CCAGGTAC | -0.118 |
| AACCTGCC | -0.156 |
| ACGTATCA | 0.438 |
| CCGTGTCC | -0.141 |
| AACTAATA | 0.336 |
| CCAGGTAA | -0.122 |
| TAGAGTAA | 0.0763 |
| GTTGGCAA | 0.0427 |
| AAGGTTCG | -0.0646 |
| AGATCAAG | 0.0987 |
| GCCTAACC | -0.245 |
| TATGTGAA | 0.185 |
| CAAAGTCC | -0.208 |
| AAGAGTGC | -0.164 |
| ACAAGTAT | 0.0711 |
| TCCCGAAA | -0.0277 |
| AATCGCCA | -0.108 |
| AGTGGTAT | 0.00997 |
| TCAAGGAA | -0.0505 |

| Sequence | PBM E-score |
| --- | --- |
| ACCACCCA | -0.177 |
| ATGCTCCG | -0.266 |
| AGACTTAC | 0.0305 |
| AATTTGGT | 0.166 |
| ACAGGTAA | 0.117 |
| AATGGATG | 0.0616 |
| AATGTTTC | -0.0708 |
| ACACAACA | 0.0461 |
| GTTCTGGA | -0.0524 |
| GATATAAC | 0.119 |
| GTGGGGGA | -0.282 |
| CTTCCCAA | -0.0745 |
| ATCACCCG | -0.0918 |
| CGATTGGC | -0.162 |
| CTCCAGCC | -0.271 |
| CTCGTCCC | -0.11 |
| ATTATTTG | 0.21 |
| ACCTTTCG | -0.149 |
| GAGGCTGA | -0.147 |
| ATATCTCA | 0.193 |
| GGCGAGTA | -0.202 |
| GAGTCCGA | -0.11 |
| GCCTAAGA | -0.144 |
| GTGACTAA | 0.0839 |
| ACCCACGA | -0.0425 |

| Sequence | PBM E-score |
| --- | --- |
| TACGAGTA | 0.254 |
| TCTCCTCA | -0.108 |
| AAGTAAGC | 0.0436 |
| CCGAGGTC | -0.355 |
| ATCCTTAA | -0.0978 |
| GGAGTCTA | -0.282 |
| TTGACCAA | -0.232 |
| ACATGGCC | -0.00558 |
| ACAACCTA | 0.0669 |
| CGAAGGAG | -0.00836 |
| ACGAGTCG | 0.0261 |
| CGTAACAA | 0.344 |
| ATAAACTA | 0.157 |
| ACTCGAAA | 0.0248 |
| ACGTCCGC | 0.268 |
| TACATCTA | 0.19 |
| GAGAGACC | -0.258 |
| ACAACCGT | -0.0828 |
| GTCTCTGA | -0.0137 |
| CGCTTTAA | 0.0367 |
| AATGTCAC | 0.184 |
| ATTCTGTC | 0.0937 |
